This is one part of the list.
What was measured:
[1] = test system: HSkMC (human skeletal muscle cells); assay: cytotoxicity call (relative viability < 0.9); details: 10 µM
[2] = test system: HepG2; assay: cytotoxicity call (relative viability < 0.9); details: 10 µM
[3] = test system: S. aureus RN4220; assay: growth inhibition call (relative growth <= 0.2); details: 50 µM

Structure (SMILES) | cytotoxicity call [1] | cytotoxicity call [2] | growth inhibition call [3]
C[C@@H]1CN([C@H](C)CO)C(=O)Cc2cc(NC(=O)C3CC3)ccc2O[C@H]1CN(C)S(=O)(=O)c1ccc(Cl)cc1 | inactive | inactive | inactive
Cc1ccc(S(=O)(=O)N(C)C[C@H]2Oc3ccc(NC(=O)Nc4ccc(C(F)(F)F)cc4)cc3CC(=O)N([C@@H](C)CO)C[C@H]2C)cc1 | active | active | inactive
C[C@@H]1CCCCO[C@H](CN(C)C(=O)C2CCCCC2)[C@@H](C)CN([C@H](C)CO)C(=O)c2cc(NS(=O)(=O)c3ccc(Cl)cc3)ccc2O1 | inactive | inactive | inactive
C[C@H]1CN([C@@H](C)CO)C(=O)c2cc(C#CCN(C)C)cnc2O[C@H]1CN(C)Cc1ccc(C(=O)O)cc1 | inactive | inactive | inactive
O=C(NCCN1CCCC1)[C@@H]1[C@@H](CO)[C@@H]2Cn3c(cccc3=O)[C@H]1N2C(=O)NC1CCCC1 | inactive | inactive | inactive
COc1ccc(S(=O)(=O)N(C)C[C@H]2OCCCC[C@@H](C)Oc3ccc(NC(=O)Nc4c(C)noc4C)cc3C(=O)N([C@@H](C)CO)C[C@@H]2C)cc1 | inactive | inactive | inactive
COc1ccc(-c2cnc3c(c2)C(=O)N([C@@H](C)CO)C[C@H](C)[C@@H](CN(C)C(=O)Cc2ccncc2)O3)cc1 | inactive | inactive | inactive
C[C@H]1CN([C@@H](C)CO)C(=O)c2cccc(NC(=O)c3ccncc3)c2O[C@@H]1CN(C)S(=O)(=O)c1cccs1 | inactive | inactive | inactive
Cc1noc(C)c1NC(=O)Nc1cccc2c1O[C@H](CN(C)C(=O)Nc1cccc3ccccc13)[C@H](C)CN([C@H](C)CO)C2=O | inactive | inactive | inactive
Cc1cc(C(=O)O)nn1C | inactive | inactive | inactive
C[C@H](CO)N1C[C@H](C)[C@@H](CN(C)Cc2ccc(F)cc2)Oc2ncc(C#Cc3cccnc3)cc2C1=O | inactive | inactive | inactive
CC1(C)OC(=O)C2(C(=O)O1)[C@@H](c1ccc(-c3ccc(-c4ccc(O)cc4)cc3)cc1)CC(=O)C[C@H]2c1ccccc1 | inactive | inactive | inactive
C[C@H]1CN([C@@H](C)CO)C(=O)c2cc(NC(=O)CCN3CCOCC3)ccc2O[C@H]1CN(C)C(=O)Nc1ccc(F)cc1 | inactive | inactive | inactive
C[C@@H]1CN([C@H](C)CO)C(=O)c2cc(NC(=O)Nc3ccc(F)cc3)ccc2O[C@H]1CN(C)C(=O)Nc1cccc2ccccc12 | inactive | inactive | inactive

From the antibiotic and cytotoxicity screens of Wong et al. (2023)
